Inconclusive results are not listed. A number of entries come with more than one value. This list holds those alone. The source may hold further records. Values given together differ, and nothing given here explains why; some may be repeats, others may stem from another dose, organism or construct than stated.
Tested on: mice, P1798 lymphosarcoma sc, survival or tumor weight T/C
Assay: NCI In Vivo Anticancer Drug Screen. Data for tumor model P1798 Lymphosarcoma (subcutaneous) in unknown mice
Details: endpoint: mean tumor weight; dose: 0.31 mg/kg/injection; schedule: Q01DX010 (ip); vehicle: other; higher = larger tumour
Method: The antitumor activity of compounds was measured in mice bearing transplantable tumors. Survival or tumor size were measured and the results are expressed as the measurement made in the treated group (T) divided by the measurement made in the vehicle treated control group (C). The tumor model used in this assay is P1798 Lymphosarcoma (subcutaneous) in unknown mice

**Q.** `CN(Cc1cnc2nc(N)nc(N)c2n1)c1ccc(C(=O)N[C@@H](CCC(=O)O)C(=O)O)cc1` was tested. Which T/C did it give?
**A.** 70 % of control, 73 % of control, 97 % of control

From PubChem BioAssay AID290 (DTP/NCI, 2004)
